Measurements reported in PubChem BioAssay AID686979 (National Center for Advancing Translational Sciences (NCATS), 2013).
Several values for one entry are separate records, joined by “and”; a condition that tells them apart may be missing. Identical values can stand only once. In all, about 420,000 compounds went through this assay and about 50,000 (12%) were called active. The inconclusive results got no clear call from the source; some entries with a clear call stand among them for comparison. Calls follow the shape of the dose curve; as a rule, active = well fitted inhibition curve with a large enough effect; inconclusive = small, poorly fitted or top-dose-only effect; inactive = flat fitted curve, though single readings scatter. Potencies of inconclusive entries are doubtful fits and often do not repeat.
% is scaled to controls: 0 for no effect and ±100 for the full control effect; potency is read from the fitted curve at half-maximal effect; tags tell the direction and shape of the fitted curve.

Assay: qHTS for Inhibitors of human tyrosyl-DNA phosphodiesterase 1 (TDP1): qHTS in cells in presence of CPT; also: nearly all actives have a fitted effect of over 55% in size
Conditions: chicken DT40 Tdp1-/-;hTDP1 cells + 20 nM CPT, ATP luminescence, 48 h; activity change, negative = growth inhibition: at 46.2 µM (top of the series)
In short: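 Cell growth measured by CellTiter-Glo luminescence after a minimum 48 h, 37 C compound exposure with 20 nM CPT in Tdp1-knockout DT40 cells stably expressing hTDP1, seeded 400/well; qHTS titration format.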
For `COC(=O)Cn1c(=O)c2c(nc3n2CCN3c2cccc(C)c2)n(C)c1=O`, the Potency was inconclusive: 5.8 µM [inhibitor, partial curve]. For `N#Cc1ccsc1NC(=O)CN1CCN(S(=O)(=O)c2ccccc2C(F)(F)F)CC1`, the Potency was inconclusive: 29.1 µM [inhibitor, single point]. In the case of `CC1Cc2ccccc2N1c1ncnc2nc[nH]c12` (stereo not given), the Potency is reported as inconclusive: 18.4 µM [inhibitor, single point]. In the case of `O=C(CCCC(=O)c1ccccc1)Nc1ccc(O)cc1`, the Potency is reported as inconclusive: 20.6 µM [inhibitor, single point]. With `CNc1ccccc1C(C)(C)c1cc(-c2ccc(F)cc2)no1` the “activity change, negative = growth inhibition” value was inactive: -27.9%. With `O=C(N/N=C/c1ccncc1)c1ccccc1OCc1ccc(Br)cc1` the Potency was inconclusive: 20.6 µM [inhibitor, single point]. With `Cc1cc(Cn2nc(C(=O)NCc3cccc(Br)c3)cc2-c2ccccc2)on1` the Potency was inconclusive: 29.1 µM [inhibitor, single point]. With `CCCCc1ccc(NC(=O)c2cc3c(=O)n4ccccc4nc3n2C)cc1` the Potency was inconclusive: 16.4 µM [inhibitor, single point]. For `FC(F)(F)c1cccnc1N1CCN(c2ncnc3nc[nH]c23)CC1`, the Potency was inconclusive: 32.6 µM [inhibitor, single point]. With `CC1(C)OCC(C2CC(c3ccccc3)NS(=O)(=O)O2)O1` (stereo not given) the “activity change, negative = growth inhibition” value was inactive: 16.1%. With `COc1ccc(OC)c(S(=O)(=O)NCc2cccnc2)c1` the “activity change, negative = growth inhibition” value was inactive: -0.695%. With `O=C(COc1coc(CN2CCN(c3ccccc3)CC2)cc1=O)Nc1cccc(F)c1` the “activity change, negative = growth inhibition” value was inactive: -22.9%. With `Cc1ccc(NC(=O)CSc2nn(-c3ccc(Cl)cc3)c(=S)s2)cc1S(=O)(=O)N(C)C` the Potency was active: 9.2 µM. With `CCN(CC)C(=O)c1cccc(-c2csc(C(O)c3ccc(F)c(F)c3)n2)c1` (stereo not given) the Potency was active: 23.1 µM. In the case of `COc1ccc(NC(=O)CCCc2nc(-c3ccco3)no2)c(OC)c1`, the “activity change, negative = growth inhibition” value is reported as inactive: -16.7%. For `Cn1cc([N+](=O)[O-])c(C(=O)N(Cc2ccccc2)Cc2ccccc2)n1`, the Potency was inconclusive: 29.1 µM [inhibitor, single point]. For `Cc1cccc(C2=NN(c3ccccc3)[C@H](CO)[C@H]2c2ccc(F)cc2)c1`, the Potency was inconclusive: 29.1 µM [inhibitor, single point]. For `Cc1ccccc1/C=C1\SC(=S)N(/N=C/c2cc([N+](=O)[O-])ccc2O)C1=O`, the Potency was inconclusive: 25.9 µM [inhibitor, single point]. In the case of `Cc1nnc(NC(=O)C23CC4CC(CC(C4)C2)C3)s1`, the “activity change, negative = growth inhibition” value is reported as inactive: -2.38%. In the case of `Cc1ccc(C)c(C(=O)COC(=O)c2cc([N+](=O)[O-])ccc2N2CCOCC2)c1`, the Potency is reported as inconclusive: 29.1 µM [inhibitor, single point]. For `CC(CCn1cccn1)NC(=O)CCc1nnc(C2CCCCC2)o1` (stereo not given), the “activity change, negative = growth inhibition” value was inactive: 7.76%. In the case of `O=C(CC(CC(=O)c1ccccc1)c1ccccc1)c1ccccc1`, the Potency is reported as inconclusive: 29.1 µM [inhibitor, single point]. For `CC(C)(C)OC(=O)C[C@H]1C/C=C\C[C@H](CC(=O)N(CCO)Cc2ccccc2)C(=O)NCCOC1=O`, the Potency was inconclusive: 29.1 µM [inhibitor, single point]. In the case of `OC(c1ccc(F)c(F)c1)c1nc(-c2cccc(F)c2)cs1` (stereo not given), the Potency is reported as active: 14.6 µM. For `COC(=O)[C@@H]1CCCN1Cc1ccc2c(c1)CN(Cc1cccn1-c1ccc(Cl)cn1)CCO2`, the Potency was inconclusive: 29.1 µM [inhibitor, single point]. In the case of `Clc1ccc2c(ccc[n+]2CCc2ccccc2)c1`, the “activity change, negative = growth inhibition” value is reported as inactive: -29.7%. In the case of `Cc1cc(S(=O)(=O)N2c3ccc(F)cc3CCC2C)ccc1-n1cnnn1` (stereo not given), the “activity change, negative = growth inhibition” value is reported as inactive: -24.8%. With `CCc1cccc(OCC2Cn3c(nc4c3c(=O)[nH]c(=O)n4C)O2)c1` (stereo not given) the Potency was active: 8.2 µM. In the case of `C/C(=N/NC(=O)C(C)n1nc(C)c([N+](=O)[O-])c1C)c1ccc(OCC(N)=O)cc1` (stereo not given), the Potency is reported as inconclusive: 20.6 µM [inhibitor, partial curve]. In the case of `c1ccc(OCc2nc3ccccc3[nH]2)cc1`, the Potency is reported as inconclusive: 23.1 µM [inhibitor, partial curve, poor fit]. With `Cc1c(C(=O)N(Cc2ccccc2)C(C)C)oc2ccc(S(=O)(=O)N3CCOCC3)cc12` the Potency was inconclusive: 29.1 µM [inhibitor, single point]. In the case of `COc1ccc(NC(=O)c2ccccc2NC(=O)c2ccco2)cc1`, the Potency is reported as inconclusive: 29.1 µM [inhibitor, single point]. With `CN(Cc1ccccc1)C(=O)c1csc([C@@H]2C[C@H](O)[C@@H](CO)O2)n1` the “activity change, negative = growth inhibition” value was inactive: -7.98%. With `O=C(c1ccco1)N(Cc1cccnc1)c1nc2ccc(F)cc2s1` the “activity change, negative = growth inhibition” value was inactive: 6.36%. For `O=C1CCN(Cc2ccccc2)CCN1CCOc1ccccc1`, the Potency was active: 5.62 µM and active: 20.6 µM. For `O=c1[nH]c(SCCOc2cccc3ccccc23)nc2ccccc12`, the Potency was inconclusive: 11.6 µM [inhibitor, partial curve]. For `O=C(CSc1nnc(CNC(=O)C23CC4CC(CC(C4)C2)C3)n1-c1ccc(F)cc1)Nc1ccccc1`, the Potency was inconclusive: 29.1 µM [inhibitor, single point]. With `CCN(CC)c1ccc2c(Cl)c(Br)c(=O)oc2c1` the Potency was active: 18.4 µM. In the case of `CCOC(=O)Cn1c(=O)oc2cc(S(=O)(=O)N3CCN(c4ccc(Cl)cc4)CC3)ccc21`, the Potency is reported as inconclusive: 29.1 µM [inhibitor, single point]. For `Cc1cc(C)cc(NC(=O)C2CCCN(c3nnc(C)c4c(C)n(-c5ccccc5)nc34)C2)c1` (stereo not given), the Potency was active: 23.1 µM. With `CCCc1nnc(NC(=O)c2c(O)c3cccc4c3n(c2=O)CCC4)s1` the Potency was active: 3.55 µM. For `CCOC(=O)n1c(=O)n(Cc2c(Cl)cccc2Cl)c2ccccc21`, the Potency was inconclusive: 18.4 µM [inhibitor, partial curve]. In the case of `Cc1ccnc(NC(=O)c2ccc(Cl)c(NC(=O)C(C)Oc3ccccc3)c2)c1` (stereo not given), the Potency is reported as inconclusive: 29.1 µM [inhibitor, single point]. In the case of `COc1cc(OC)cc(-c2nc3n(n2)C(c2ccccc2F)C(C(=O)Nc2cccnc2)=C(C)N3)c1` (stereo not given), the Potency is reported as inconclusive: 29.1 µM [inhibitor, single point]. With `Cc1ccc(S(=O)(=O)NCC(c2ccc(N(C)C)cc2)N2CCCC2)cc1` (stereo not given) the Potency was inconclusive: 18.4 µM [inhibitor, single point]. For `CCc1ccc(S(=O)(=O)c2cn(C)c3cc(N4CCCCC4C)c(F)cc3c2=O)cc1` (stereo not given), the Potency was inconclusive: 25.9 µM [inhibitor, single point]. With `CCOC(=O)C1C(=O)NC(SC)=C(C#N)C1c1ccccc1F` (stereo not given) the Potency was inconclusive: 3.26 µM [inhibitor, single point]. With `CCc1ccc(C2C(C(=O)Nc3ccccc3)=C(C)Nc3c(C(=O)Nc4ccc(C)cc4)cnn32)cc1` (stereo not given) the Potency was inconclusive: 7.31 µM [inhibitor, partial curve]. With `COc1cc(C(C(=O)Nc2c(C)cccc2C)N(C)C(=O)c2ccc(-n3cnnn3)cc2)ccc1O` (stereo not given) the activity change, negative = growth inhibition was inconclusive: -35.2% [inhibitor]. For `CC(C(=O)Nc1ccccc1)N(C)CCOc1ccccc1` (stereo not given), the “activity change, negative = growth inhibition” value was inactive: -20%. For `O=C(Nc1ccc2c(c1)CCC2)C1CCN(c2c3c(nc4ncnn24)CCC3)CC1`, the Potency was active: 23.1 µM. With `Cc1cc(C(=O)COC(=O)c2cccn2C)c(C)n1Cc1ccco1` the “activity change, negative = growth inhibition” value was inactive: -27.8%. For `O=C(CSc1nccn1Cc1ccco1)Nc1cccc(F)c1`, the Potency was “inactive and inconclusive: 29.1 µM [inhibitor, single point]”. For `O=C(Nc1ccc(C(F)(F)F)cc1)C1CCC(CNS(=O)(=O)c2cccc3nsnc23)CC1` (stereo not given), the “activity change, negative = growth inhibition” value was inactive: -29.7%. With `CCN1CCN(C(=O)Cn2c(=O)sc3ccccc32)CC1` the “activity change, negative = growth inhibition” value was inactive: 6.32%. For `Cc1nc2ccc(NC(=O)c3ccc([N+](=O)[O-])cc3)cc2s1`, the Potency was inconclusive: 23.1 µM [inhibitor, single point]. With `Cc1sc2ncnc(N(C)Cc3cccs3)c2c1C` the Potency was inconclusive: 29.1 µM [inhibitor, single point]. In the case of `Cc1ccc(C(=O)OCC(=O)NC(=O)NCc2ccccc2)cc1C`, the “activity change, negative = growth inhibition” value is reported as inactive: 2.45%. In the case of `O=C(Cc1cccc2ccccc12)Nc1nnc(-c2cccc([N+](=O)[O-])c2)s1`, the Potency is reported as inconclusive: 29.1 µM [inhibitor, single point]. In the case of `CC(C)CC(=O)Nc1cccc(-c2nc3ncccc3o2)c1`, the Potency is reported as inconclusive: 25.9 µM [inhibitor, partial curve]. In the case of `C=CC[C@H](CC(=O)OC(C)(C)C)C(=O)OC[C@@H]1CCCN1C(=O)[C@H](CC=C)CC(=O)N[C@H](CO)Cc1ccccc1`, the Potency is reported as active: 25.9 µM. For `Cc1cc(N2CCCCC2)n2ncc(-c3ccccc3)c2n1`, the Potency was inconclusive: 29.1 µM [inhibitor, single point]. In the case of `CCOc1ccc(-c2noc(CCCC(=O)NC3CCCC3)n2)cc1OC`, the “activity change, negative = growth inhibition” value is reported as inactive: -12.5%. For `COc1cccc(NC(=O)Nc2nnc(COCCO)s2)c1`, the Potency was inconclusive: 25.9 µM [inhibitor, single point]. With `Cc1ccc(-n2c(CCC(=O)O)ccc2-c2cccs2)cc1C` the Potency was inconclusive: 16.4 µM [inhibitor, single point]. For `CCC1CCCCN1Cc1nc(Cc2ccccc2Cl)no1` (stereo not given), the Potency was inconclusive: 29.1 µM [inhibitor, single point]. With `COC(=S)Nc1cccc(C(F)(F)F)c1` the “activity change, negative = growth inhibition” value was inactive: 1.55%. In the case of `O=C(CSc1ncnc2scc(-c3ccccc3)c12)N1CCN(c2ccccc2F)CC1`, the Potency is reported as inconclusive: 29.1 µM [inhibitor, single point]. With `COC(=O)c1ccc(S(=O)(=O)N2CCCN(Cc3cccc(Br)c3F)CC2)n1C` the Potency was inconclusive: 20.6 µM [inhibitor, single point]. For `Cc1ccccc1-c1nc(C#N)c(NCc2ccco2)o1`, the “activity change, negative = growth inhibition” value was inactive: 25.6%.
